GI50 and TGI data for two molecules are collected here from PubChem BioAssay (NCI).

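48-hour exposure; five concentrations; linearly interpolated endpoints. GI50 marks 50% less growth. TGI denotes the concentration required for complete inhibition of growth.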

For this experiment, the system named is NCI-H322M lung. The experiment is described as follows: inhibition of tumour cell growth, NCI panel, 48 h.

Turning to `COc1ccc([C@H]2[C@H](O)C(=O)N2c2cc(OC)c(OC)c(OC)c2)cc1Cl`, the GI50 was below 0.021 µM and the TGI was above 100 µM.
For `CCC(C)[C@H]1C(=O)O[C@H](C(C)C)C(=O)N(C)[C@@H](C(C)C)C(=O)O[C@H](C(C)C)C(=O)N(C)[C@@H](C(C)C)C(=O)O[C@H](C(C)C)C(=O)N1C` (some centres undefined) the same measures were 2.5 µM and above 10 µM.
